Measurements from PubChem BioAssay AID686978 (National Center for Advancing Translational Sciences (NCATS), 2013).
Where “and” joins values, the source holds several entries; their conditions need not be identical. Identical values can stand only once. About 64,000 (15%) of roughly 420,000 compounds were called active. The inconclusive results got no clear call from the source; some entries with a clear call stand among them for comparison. Calls come from the whole dose curve; as a rule, active = well fitted inhibition curve with a large enough effect; inconclusive = small, poorly fitted or top-dose-only effect; inactive = flat fitted curve, though single readings scatter. A potency beside an inconclusive call is a rough fit, not a confirmed value.

experiment: qHTS for Inhibitors of human tyrosyl-DNA phosphodiesterase 1 (TDP1): qHTS in cells in absence of CPT; details: DT40 Tdp1-/- hTDP1 cells, no CPT, ATP luminescence, 48 h; activity change, negative = growth inhibition: at 46.2 µM (top of the series) unless noted; note: nearly all actives have a fitted effect of over 55% in size
How it was run: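 Luminescent ATP content (CellTiter-Glo) served as the growth readout. Knockout chicken DT40 cells expressing human TDP1 were exposed to compounds without camptothecin for a minimum 48 hr at 37 °C.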
% is set by controls: 0 for no effect and ±100 for the full control effect; potency is the fitted concentration of half-maximal effect; tags give direction and shape of the fitted curve.

Structure (SMILES) | Potency | activity change, negative = growth inhibition
c1ccc(-c2csc3ncnc(NCc4ccccn4)c23)cc1 | active: 9.2 µM | 
COc1ccc(-c2cccc(NC(=O)c3ccco3)c2)nn1 | active: 25.9 µM | 
Cc1nc2ccccc2cc1OCc1ccc(F)cc1 | active: 11.6 µM | 
COc1ccc(NC(=O)Cn2c(=O)oc3cc(S(=O)(=O)N4CCCCC4C)ccc32)cc1 (stereo not given) | active: 20.6 µM | 
Cc1ccc(C(=O)OCC(=O)N2C(C)CCCC2C)cc1S(=O)(=O)N1CCOCC1 (stereo not given) | inconclusive: 29.1 µM [inhibitor, single point] | 
Cc1ccc2c(c1)N(C(=O)CCC(=O)NCc1cccnc1)CCO2 |  | inactive: -4.05%
Cc1ccc(C2(C)NC(=O)N(CC(=O)Nc3ccccc3N3CCCC3)C2=O)cc1 (stereo not given) | inconclusive: 20.6 µM [inhibitor, single point] | 
O=C(CN1CCN(S(=O)(=O)/C=C/c2ccccc2)CC1)Nc1ccc(N2CCOCC2)cc1 |  | inactive: -6.25%
C/C=C/c1ccc(OCCCCNCc2ccco2)c(OC)c1 | inconclusive: 25.9 µM [inhibitor, single point] | 
Cc1ccc(NC(=O)CNC(=O)N2CC(=O)Nc3ccccc32)cc1F | inconclusive: 29.1 µM [inhibitor, single point] | 
CCOC(=O)c1ccc(NC(=S)N2CCSC2c2ccc(Br)cc2)cc1 (stereo not given) | inconclusive: 29.1 µM [inhibitor, single point] | 
Cc1ccc(NC(=O)N/C=C/c2ccco2)cc1C | inconclusive: 29.1 µM [inhibitor, partial curve, poor fit] | 
COC(=O)c1ccccc1NC(=O)CCCN1C(=O)C(c2ccccc2)Oc2cccnc21 (stereo not given) | inactive and inconclusive: 23.1 µM [inhibitor, single point] | 
Cc1ccc(S(=O)(=O)c2cc3ccccc3oc2=Nc2ccc3c(c2)OCCO3)cc1 | inconclusive: 14.6 µM [inhibitor, partial curve] | 
O=C(c1ccccc1F)N1CCC(c2nc3c(nnn3Cc3cccc(F)c3)c(=O)[nH]2)CC1 | inconclusive: 29.1 µM [inhibitor, single point] | 
Cc1ccc(NC(=S)N(CCCN2CCC(C)CC2)Cc2ccco2)cc1 | inconclusive: 16.4 µM [inhibitor, partial curve] | 
O=C(/C=C/c1ccc(Cl)cc1)Nc1nccs1 | inconclusive: 20.6 µM [inhibitor, single point] | 
COc1ccc2c(COC(=O)c3cccc(S(=O)(=O)NCC(C)C)c3)cc(=O)oc2c1 | inconclusive: 25.9 µM [inhibitor, single point] | 
O=C(CN(Cc1ccco1)C(=O)CCC(=O)Nc1ccccn1)NCc1ccccc1 |  | inactive: 12%
C=CCCC1CN(Cc2ccco2)S(=O)(=O)c2c(F)cccc2O1 (stereo not given) | inconclusive: 29.1 µM [inhibitor, single point] | 
CCOC(=O)c1[nH]cc(-c2ccccc2)c1N1CCOCC1 | active: 29.1 µM | 
Cc1ccc(Nc2ncnc3c2cnn3-c2ccc(C)cc2)cc1 | inconclusive: 23.1 µM [inhibitor, single point] | 
N#Cc1cc([N+](=O)[O-])ccc1NC(=O)CSc1n[nH]c(=O)[nH]c1=O |  | inactive: -16.3%

Structure (SMILES) | Potency | activity change, negative = growth inhibition
Cc1c(CCO)sc[n+]1CC(=O)OC12CC3CC(CC(C3)C1)C2 | inconclusive: 11.6 µM [inhibitor, partial curve, poor fit] | 
O=C(NCc1ccccc1)C1C(=O)N(Cc2ccccc2)C(=O)C1C1(O)CCCC1 (stereo not given) | inconclusive: 18.4 µM [inhibitor, single point] | 
CCCc1nnc(NC(=O)CCC(=O)N2CCN(Cc3ccc(F)cc3)CC2)s1 |  | inactive: -2.8%
COc1cc(OC)c(NC(=O)c2cc(C(C)=O)n3ccccc23)cc1Cl | inconclusive: 8.2 µM [inhibitor, partial curve] | 
CC(=O)c1ccc(NC(=O)Nc2ccc([N+](=O)[O-])cc2C)cc1 | active: 16.4 µM | 
CC(=O)Nc1ccc(NC(=O)c2ccc(CN3CCc4ccccc4C3)cc2)cc1 | inconclusive: 20.6 µM [inhibitor, single point] | 
COc1cc(C(=O)OCC(=O)Nc2cc(C)on2)ccc1OCc1ccccc1Cl | inconclusive: 29.1 µM [inhibitor, single point] | 
O=C(C1CCC(C(=O)N2CCc3ccccc32)CC1)N1CCc2ccccc21 (stereo not given) | inconclusive: 25.9 µM [inhibitor, single point] | 
COc1ccc(Oc2ccc(S(=O)(=O)N3CCCCC3)cc2S(=O)(=O)N2CCCCC2)cc1 | inconclusive: 13 µM [inhibitor, partial curve] | 
CCOc1ccc2c(S(=O)(=O)O)cccc2c1[N+](=O)[O-] |  | inactive: -17.2%
O=C(CCN(CCO)Cc1ccccc1)Nc1ccc(Br)cc1 | inconclusive: 25.9 µM [inhibitor, single point] | 
CC(=O)c1cccc2c(O)c(C3=Nc4ccccc4C3=O)[nH]c12 | active: 14.6 µM | 
COc1cccc(N2CCN(C(=O)C3CCN(S(=O)(=O)c4ccc5c(c4)CC(C)N5C(C)=O)CC3)CC2)c1 (stereo not given) | inconclusive: 13 µM [inhibitor, partial curve] | 
CCCCn1c(SCc2c(C)noc2C)nc2cc(S(N)(=O)=O)ccc21 | inconclusive: 18.4 µM [inhibitor, partial curve, poor fit] | 
Cc1ccc(S(=O)(=O)N(C)CC(=O)Nc2ccncc2)cc1 | inconclusive: 29.1 µM [inhibitor, single point] | 
NS(=O)(=O)c1cccc(NC(=O)CN2CCc3ccccc32)c1 |  | inactive: -1.75%
CCOc1ccccc1NC(=O)CSc1ccc2nnc(CCNS(=O)(=O)c3ccccc3)n2n1 |  | inactive: -21.1%
COc1ccc(C)cc1NS(=O)(=O)c1c(C)nc2sc(C)cn2c1=O | inconclusive: 20.6 µM [inhibitor, single point] | 
Cc1ccc(N2C(=O)C(Cc3ccc(O)cc3)NC2=S)cc1C (stereo not given) |  | inactive: -11.1%
COc1ccc(C(=O)OCC(=O)Nc2cc(C)on2)cc1F |  | inactive: 0.457%
COc1ccccc1NC(=O)C1=C(C)Nc2nc(SCC(=O)c3ccc(C)cc3)nn2C1c1ccccc1C (stereo not given) |  | inactive: -25.5%
O=C(c1ccco1)N1CCC(N2CCN(c3ccccc3)CC2)CC1 |  | inactive: -4.84%
